Measured values taken from PubChem BioAssay AID1345082 (National Center for Advancing Translational Sciences (NCATS), 2018).
“And” between values parts separate entries of the source, which are not always exact repeats. Equal entries are not always repeated. About 4,000 (4.3%) of roughly 94,000 compounds were called active. This list was built around the results that the source calls inconclusive (neither active nor inactive); the mix of calls is not that of the screen. Calls follow the shape of the dose curve; as a rule, active = well fitted inhibition curve with a large enough effect; inconclusive = small, poorly fitted or top-dose-only effect; inactive = no such curve, though single readings can be large or run the other way. Potencies beside an inconclusive call are fits to weak or partial responses and may not hold up.
Potency is read from the fitted curve at half-maximal effect; tags tell the direction and shape of the fitted curve.

Assay: Cytotoxic Profiling in NIH 3T3 Cell Line of Diverse Libraries Using Quantitative High-Throughput Screening; also: nearly all actives have a fitted effect of over 55% in size
Details: NIH 3T3 viability, CellTiter-Glo ATP luminescence, 48-72 h; series mostly up to 96.7 µM
Procedure, shortened: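 First NIH 3T3 cells are plated at 400 cells/well; next compound is pinned in; then plates incubate 48 or 72 hr at 37 °C; finally CellTiter-Glo is added and luminescence read after 10 min.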
In the case of `Cc1ccc(C2Cn3nnc(C(=O)N4CCN(C(=O)Cc5cccs5)CC4)c3CO2)cc1` (configuration not stated), the Potency is reported as “inactive”.
With `O=C(NCc1ccccc1)[C@@H]1C[C@@H](c2ccc(F)cc2)N([S+](=O)([O-])c2cccnc2)C1` the Potency was inconclusive: 56.2 µM [inhibitor, partial curve, poor fit].
In the case of `NCCCC(=O)N1CCC2(CC1)CN(C(=O)Cc1ccccc1)CCO2`, the Potency is reported as inconclusive: 70.8 µM [inhibitor, single point].
For `COc1cccc(-c2cc(C3CCN(C(=O)Nc4cccc(SC)c4)CC3)[nH]n2)c1`, the Potency was active: 44.7 µM.
For `CN(C)c1cccc(C(=O)N2CCCN(c3cc(-c4ccccc4)[nH]n3)CC2)c1`, the Potency was “inactive”.
In the case of `CCN1C(=O)CCc2cc(NC(=O)c3ccn(CC)n3)ccc21`, the Potency is reported as inconclusive: 50.1 µM [inhibitor, partial curve, poor fit].
In the case of `O=C(c1ccc(F)cc1)N1CCC2(CC1)CCN(Cc1cccs1)c1ccccc1O2`, the Potency is reported as inconclusive: 50.1 µM [inhibitor, partial curve, poor fit].
In the case of `COC1CCN(c2cc(-c3ccsc3)nc3c(C)noc23)CC1`, the Potency is reported as inconclusive: 56.2 µM [inhibitor, partial curve, poor fit].
In the case of `O=C1NC2(CCN(CC3CCCCC3)C2)OCc2ccccc21` (configuration not stated), the Potency is reported as “inactive”.
For `Cc1cc(NC(=O)CN2C(=O)NC(c3ccccc3Cl)C3=C2COC3=O)ccc1Br` (configuration not stated), the Potency was active: 39.8 µM.
In the case of `CN(C)C(=O)c1nc(-c2ccc(F)cc2)c2cnccn12`, the Potency is reported as inconclusive: 89.1 µM [inhibitor, partial curve, poor fit].
In the case of `Cc1nn(-c2ccccc2)c2c1C(C)N(C1CN(C(=O)Cc3ccccc3)C1)C2=O` (configuration not stated), the Potency is reported as inconclusive: 50.1 µM [inhibitor, partial curve, poor fit].
For `Cc1ccccc1-c1cc(-c2ccc(=O)[nH]c2)c2cncn2c1`, the Potency was active: 25.1 µM.
With `COCC(=O)NCc1cc2n(n1)CCCN(Cc1cc3ccccc3s1)C2` the Potency was inconclusive: 31.6 µM [inhibitor, full curve].
For `Cc1ccc(-c2cc(O)c3c(c2)CNCCO3)s1`, the Potency was “inactive”.
In the case of `CN1[C@@H](CCC(=O)NCc2ccccc2)CNC(=O)[C@@H]2[C@H]1CCN2Cc1cccc(Cl)c1`, the Potency is reported as inconclusive: 89.1 µM [inhibitor, single point].
In the case of `COCCN1C(=O)c2cccn2CC1CNC(=O)c1ccc(-n2c(C)ccc2C)cc1` (configuration not stated), the Potency is reported as inconclusive: 50.1 µM [inhibitor, partial curve, poor fit].
With `COc1ccc(C(=O)N[C@@H]2CN(Cc3ccccc3)C[C@H]2CN(C)C)cc1` the Potency was inconclusive: 3.55 µM [inhibitor, full curve, poor fit].
For `Cc1nc(C2CC23CCN(C(=O)Nc2ccccc2F)CC3)no1` (configuration not stated), the Potency was “inactive”.
For `O=C(CN1C(=O)CCC1=O)N1CCC(c2noc(-c3ccccn3)n2)C1` (configuration not stated), the Potency was “inactive”.
With `O=C(O)C[C@@H]1CCN(C(=O)C2CCCCC2)C[C@@H]1CCN(CCN1CCOCC1)c1ccccc1` the Potency was inconclusive: 25.1 µM [inhibitor, full curve, poor fit].
For `COc1cc(F)ccc1-c1cc2c(ccn2Cc2ccncc2)c(N2CCOCC2)n1`, the Potency was inconclusive: 56.2 µM [inhibitor, partial curve, poor fit].
In the case of `COc1cccc([S+](=O)([O-])N2CCN(CCn3nc4n(c3=O)CCCC4)CC2)c1`, the Potency is reported as “inactive”.
In the case of `CN1CCN(c2ccc(-c3noc([C@@H]4CCCN4Cc4ccccc4)n3)cn2)CC1`, the Potency is reported as active: 100 µM.
In the case of `NC(Cc1ccccc1)C(=O)N1CCN(c2ccccn2)CC1` (configuration not stated), the Potency is reported as “inactive”.
For `C=CCOc1c(OC)ccc2c1CN(C1CCCC1)C(=O)CCN2CC(O)COc1ccc(OC)cc1` (configuration not stated), the Potency was inconclusive: 44.7 µM [inhibitor, partial curve, poor fit].
For `Cc1cccc(-c2cccc(CN3CCC(NC(=O)c4ccccc4C)CC3)c2)c1`, the Potency was active: 31.6 µM.
For `COCCNc1ncccc1-c1noc([C@@H]2CCCN2Cc2ccccn2)n1`, the Potency was inconclusive: 28.2 µM [inhibitor, partial curve, poor fit].
For `Cn1ccnc1-c1ccc(N2CCC(CO)(CCOc3ccccc3)CC2)nn1`, the Potency was inconclusive: 17.8 µM [inhibitor, full curve, poor fit].
In the case of `COCCOC(=O)C1=C(C)N=C2SC=C(CC(=O)NC3CC3)N2C1c1ccccc1C` (configuration not stated), the Potency is reported as “inactive”.
With `COc1ccccc1CNC(=O)C[C@@H]1[C@H](O)CCC2[C@](C)(CO)[C@H](OC(=O)NC3CCCCC3)CC[C@]21C` (some centres not stated) the Potency was inconclusive: 56.2 µM [inhibitor, partial curve, poor fit].
With `CSc1ccc(-c2cccc(C(=O)NCC(=O)N3CCCCC3)c2)cc1` the Potency was inconclusive: 39.8 µM [inhibitor, partial curve].
With `Cn1ncc2c(C(=O)NCc3cccc(C(F)(F)F)c3)cc(-c3ccc(Cl)cc3Cl)nc21` the Potency was inconclusive: 63.1 µM [inhibitor, single point].
With `O=C(c1cc(-c2ccccc2)n[nH]1)N1CCc2c(nc(-c3ccccc3)[nH]c2=O)C1` the Potency was inconclusive: 50.1 µM [inhibitor, single point].
With `CC(C)(C)CN1CCOC[C@H]1c1ncc(-c2ccc(F)cc2F)[nH]1` the Potency was inconclusive: 100 µM [inhibitor, partial curve].
With `CCN1C(=O)C2CC3(CCN(Cc4ccc(F)c(F)c4)CC3)CN2C1=O` (configuration not stated) the Potency was inconclusive: 44.7 µM [inhibitor, partial curve, poor fit].
For `Cc1nc(N2CCN(C(=O)COc3ccc(F)cc3)CC2)cc(C(F)(F)F)n1`, the Potency was inconclusive: 31.6 µM [inhibitor, full curve, poor fit].
In the case of `COc1ccc(CNC(=O)[C@@H]2Cc3nc[nH]c3CN2Cc2ccc(Cl)cc2)cc1`, the Potency is reported as inconclusive: 112 µM [inhibitor, partial curve, poor fit].
With `COC1CCN(C(=O)c2cnc3c(c2)N(C(=O)CCc2ccccc2)CCC3)CC1` the Potency was inconclusive: 112 µM [inhibitor, single point].
With `COc1cccc(C(=O)N2CCN(C(=O)c3cccc(-c4cccc(OC)c4)c3)CC2)c1` the Potency was inconclusive: 50.1 µM [inhibitor, partial curve, poor fit].
With `COc1ccccc1Nc1ccnc(N2CCC(C(=O)NCc3ccc4c(c3)OCO4)CC2)n1` the Potency was inconclusive: 50.1 µM [inhibitor, partial curve, poor fit].
For `Fc1ccc(OC2CN(CC3CCCCC3)C2)cc1F`, the Potency was inconclusive: 56.2 µM [inhibitor, partial curve, poor fit].
In the case of `COc1ccccc1OCCNC(=O)C1Cn2cccc2C(=O)N1Cc1cccnc1` (configuration not stated), the Potency is reported as inconclusive: 44.7 µM [inhibitor, partial curve, poor fit].
For `Cn1ccc(NC(=O)[C@@H]2C[C@@H](c3ccc(F)cc3)N(CCOc3ccccc3)C2)n1`, the Potency was inconclusive: 112 µM [inhibitor, single point].
In the case of `COc1ccc(-c2nc3c(c(=O)[nH]2)CCN(C(=O)c2ccc(OC)cc2OC)C3)cc1`, the Potency is reported as inconclusive: 50.1 µM [inhibitor, partial curve, poor fit].
In the case of `Cc1ccc(-c2cc(N3CCCN(C(=O)c4cccs4)CC3)n[nH]2)cc1C`, the Potency is reported as “inactive”.
With `O=C(NC1CCN(c2ccc3nnc(-c4ccccc4)n3n2)CC1)c1cccc(Cl)c1` the Potency was inconclusive: 22.4 µM [inhibitor, full curve].
With `Cc1noc(C)c1S(=O)(=O)N1CCOC[C@H](Oc2ccc(C(F)(F)F)cc2)C1` the Potency was inconclusive: 56.2 µM [inhibitor, partial curve, poor fit].
With `FC(F)(F)c1cccc(-c2cc(-c3ccncc3)c3cncn3c2)c1` the Potency was active: 35.5 µM.
In the case of `Cc1sc2ncnc(N3CCCN(C(=O)c4ccoc4)CC3)c2c1C`, the Potency is reported as inconclusive: 15.8 µM [inhibitor, partial curve, poor fit].
In the case of `CCn1nccc1C(=O)N1CC(Oc2ccccc2-c2nc(CCOC)no2)C1`, the Potency is reported as “inactive”.
With `Cc1nc(-c2ccc(F)cc2)n(CC(=O)Nc2ccccc2)c(=O)c1CCO` the Potency was “inactive”.
In the case of `CC(c1ccccc1)N1CCN(c2cccc(CN(C)S(C)(=O)=O)c2)CC1` (configuration not stated), the Potency is reported as inconclusive: 35.5 µM [inhibitor, partial curve].
In the case of `Cc1ncc(S(C)(=O)=O)c(NCc2nnc3ccccn23)n1`, the Potency is reported as inconclusive: 50.1 µM [inhibitor, partial curve, poor fit].
For `O=C(NC1CCCCCC1)c1nc2sccn2c1-c1cccnc1`, the Potency was inconclusive: 44.7 µM [inhibitor, partial curve, poor fit].
For `CN1CC(=O)N(C2CCCC2)Cc2c(NCc3ccc(F)cc3)ncnc21`, the Potency was inconclusive: 50.1 µM [inhibitor, partial curve, poor fit].
For `CO[C@H]1COCCN(C(=O)c2ccc(C#N)cc2)C1`, the Potency was “inactive”.
For `O=C(Nc1ccc([C@H]2OCC(=O)N(CC3CCCCC3)[C@@H]2CO)cc1)c1ccccn1`, the Potency was inconclusive: 100 µM [inhibitor, partial curve].
With `CSCCNC(=O)c1coc(COc2cccc(C(F)(F)F)c2)n1` the Potency was inconclusive: 89.1 µM [inhibitor, single point].
With `COC[C@@H]1CN(C(=O)Cc2c[nH]c3ccccc23)C[C@H]1c1nc(C)no1` the Potency was “inactive”.
In the case of `Cn1cccc1CN1CCn2c(nnc2-c2ccccc2)C1`, the Potency is reported as “inactive and inconclusive: 112 µM [inhibitor, partial curve, poor fit]”.
For `COC1CCC(C(=O)N2CCCn3nc(C)c(-c4ccccc4-c4ccccc4)c32)CC1` (configuration not stated), the Potency was inconclusive: 25.1 µM [inhibitor, full curve, poor fit].
